Test results reported in PMC4336329 (PLoS ONE, 2015).
About 2,200 (0.71%) of roughly 310,000 compounds showed an effect of 50% or more. Effects have a minus sign here. This is one part of the list.

biological target: human ether-à-go-go-related gene (hERG) potassium channel (human, UniProt Q12809); test: primary screen, population patch clamp on CHO cells stably expressing hERG
Sequence (Q12809 whole entry, looked up): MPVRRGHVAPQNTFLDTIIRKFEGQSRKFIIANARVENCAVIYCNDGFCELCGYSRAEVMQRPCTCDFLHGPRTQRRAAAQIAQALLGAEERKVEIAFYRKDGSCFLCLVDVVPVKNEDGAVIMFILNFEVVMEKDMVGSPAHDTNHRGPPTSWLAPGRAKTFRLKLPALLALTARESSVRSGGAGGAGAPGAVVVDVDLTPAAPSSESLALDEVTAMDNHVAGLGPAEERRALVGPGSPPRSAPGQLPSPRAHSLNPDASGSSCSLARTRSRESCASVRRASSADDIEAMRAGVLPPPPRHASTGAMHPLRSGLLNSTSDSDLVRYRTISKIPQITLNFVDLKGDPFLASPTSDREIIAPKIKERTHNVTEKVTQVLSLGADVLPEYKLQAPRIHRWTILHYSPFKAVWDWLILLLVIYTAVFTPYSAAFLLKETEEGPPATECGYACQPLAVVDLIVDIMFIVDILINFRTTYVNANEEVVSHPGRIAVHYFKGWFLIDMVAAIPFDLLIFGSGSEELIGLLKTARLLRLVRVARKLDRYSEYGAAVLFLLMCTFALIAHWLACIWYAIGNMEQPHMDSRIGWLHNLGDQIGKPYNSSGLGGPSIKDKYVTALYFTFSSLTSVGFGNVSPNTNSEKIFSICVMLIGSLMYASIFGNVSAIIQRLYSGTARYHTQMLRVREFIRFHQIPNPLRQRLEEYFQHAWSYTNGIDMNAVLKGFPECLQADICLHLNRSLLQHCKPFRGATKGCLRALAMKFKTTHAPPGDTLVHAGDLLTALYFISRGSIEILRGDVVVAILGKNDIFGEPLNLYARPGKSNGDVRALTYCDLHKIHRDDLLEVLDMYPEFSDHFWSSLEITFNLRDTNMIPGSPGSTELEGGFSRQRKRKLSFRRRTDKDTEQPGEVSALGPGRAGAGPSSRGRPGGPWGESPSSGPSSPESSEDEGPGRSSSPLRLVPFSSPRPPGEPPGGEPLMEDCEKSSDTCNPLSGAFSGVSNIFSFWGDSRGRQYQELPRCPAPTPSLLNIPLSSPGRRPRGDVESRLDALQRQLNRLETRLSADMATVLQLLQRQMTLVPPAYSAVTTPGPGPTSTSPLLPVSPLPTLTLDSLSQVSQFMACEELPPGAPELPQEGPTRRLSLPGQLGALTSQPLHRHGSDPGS

| Compound | hERG current change (%, negative = inhibition) at 1uM [%] |
| --- | --- |
| Cc1cccc(C)c1N1C(=O)CC(N(O)c2ccccc2)C1=O (stereo not shown) | 20.5 |
| COc1ccc(C)cc1NC(=O)C1CCCN(S(=O)(=O)c2cccc3cccnc23)C1 (stereo not shown) | 7.19 |
| Cn1c(CNC(=O)c2ccco2)nnc1SCC(=O)N1c2ccccc2Sc2ccccc21 | 6.73 |
| Cc1ccc(NC(=O)c2ccc3[nH]c(=O)c(=O)[nH]c3c2)nc1 | -5.13 |
| O=C(Nc1ccnn1C1CCN(C(=O)c2ccc(Cl)c(F)c2)CC1)C1CCOC1 (stereo not shown) | 9.51 |
| CC1=NN(c2cccc(C(=O)O)c2)C(=O)/C1=C\C=C\c1ccco1 | 5.51 |
| Cn1cnnc1SCC(=O)Nc1ccccc1F | 92.3 |
| Br.N=C(N)SCc1ccc(Cl)cc1Cl | -9.46 |
| COc1ccc(NC(=O)c2c(NC(=O)CNCC(C)C)sc3c2CCC3)c(OC)c1 | 15.5 |
| O=C(c1ccco1)N1CCN(S(=O)(=O)c2ccc(Cl)cc2)CC1 | 12 |
| CC(C)(C)c1ccc(SCCc2cccnc2)cc1 | 10.6 |
| COC(=O)CNC(=O)CNC(=O)Nc1ccccc1Cl | 10.6 |
| COCCNC(=O)c1ccc(S(=O)(=O)N2CCCc3ccccc32)cc1 | 13.9 |
| OCc1c(Cl)nc2ccccn12 | 5.47 |
| O=C1N/C(=N/N=C/c2ccc(O)cc2)SC1Cc1ccccc1 (stereo not shown) | -0.776 |
| Cc1ccc(NC(=S)NN2CCN(C)CC2)c(C)c1 | 15.4 |
| CCOC(=O)C(C)Sc1nc2c(cnn2-c2ccc(F)cc2)c(=O)[nH]1 (stereo not shown) | 12.9 |
| COCCN1CCN(C(=O)c2cc(COc3ccc(F)cc3Cl)on2)CC1 | 7.83 |
| CCOC(=O)c1sc(=S)n(C)c1NC(=O)c1ccc(C(C)(C)C)cc1 | 9.13 |
| COc1ccc([N+](=O)[O-])cc1/C=N/NC(=O)CNC(=O)c1cccc(F)c1 | 1.34 |
| CCN1CCCc2cc(CN(CCN3CCOCC3)C(=S)Nc3ccc(C)cc3)ccc21 | 5.31 |
| O=C(COc1ccc(-n2cnnn2)cc1)NC1CCCCC1 | -6.68 |
| COc1ccc(CN(CC2CCC(C(=O)O)CC2)C(=S)Nc2ccccc2C)cc1 (stereo not shown) | -1.85 |

| Compound | hERG current change (%, negative = inhibition) at 1uM [%] |
| --- | --- |
| O=C(O)C(=O)O.O=[N+]([O-])c1ccc(S(=O)(=O)N2CCN(Cc3ccco3)CC2)cc1 | 18.9 |
| CC(=O)c1ccc(-c2ccccc2)cc1 | 13.4 |
| Cc1ccc(-n2c(=O)c3sccc3n(Cc3cc(=O)n4cc(Cl)ccc4n3)c2=O)cc1F | -7.4 |
| Cc1nnc(SCCC(=O)Nc2nc(-c3ccccc3)ns2)s1 | 0.311 |
| CC(C)(C)c1cc(OC(=O)C2CCCC2)ccc1O | 16 |
| O=C(CN1N=C(C(F)(F)F)CC1(O)c1ccc([N+](=O)[O-])cc1)c1ccccc1 (stereo not shown) | 7.15 |
| CCCc1cc(=O)[nH]c(SCc2ccc(C#N)cc2)n1 | 7.8 |
| COc1ccc(-n2c(NN)nc3sc4c(c3c2=O)CCCC4)cc1 | -9.75 |
| Cc1ccc(NC(=O)C(=O)NN)cc1 | 11.5 |
| C=CCn1c(SCn2nnc3ccccc3c2=O)nnc1C1CCCCC1 | 6.45 |
| CC(C)OC(=O)CCC1(C(=O)O)CCC(=O)NC1 (stereo not shown) | 11.5 |
| Cc1c(Br)cc(C(=O)N2CCN(CCO)CC2)c(C)c1C | 16.8 |
| O=C(CSc1n[nH]c(=O)n1C1CC1)c1ccc2c(c1)OCCO2 | 11.3 |
| O=C(Cn1cnc2c(nnn2-c2cccc(Cl)c2)c1=O)N1CCCC1 | 3.72 |
| O=C(CNc1ccccc1-c1ccccc1)NCc1ccccc1 | -1.05 |
| CSc1ccccc1NC(=O)COc1ccc(Cl)cc1 | 3.28 |
| Cc1ccc(NC(=S)NC(NC(=O)c2ccccc2)C(Cl)(Cl)Cl)c(C)c1 (stereo not shown) | 5.37 |
| COc1ccc(CC(=O)OC2CCCN(C)C2)cc1.Cl (stereo not shown) | 7.36 |
| CCCCn1c(N)c(N(CC(C)C)C(=O)c2c(CC)noc2C)c(=O)[nH]c1=O | 5.66 |
| COc1ccccc1C(=O)COC(=O)c1ccc(N(C)C)cc1 | 20.6 |
| COCCN(C(=O)COC(=O)Cc1cccc(OC)c1)c1c(N)n(CC(C)C)c(=O)[nH]c1=O | 5.44 |
| CCCCCC(=O)N1CC2(C)CN(C(=O)CCCCC)CC(C)(C1)C2=O | -5.99 |
| CC(C)(C)C(=O)NC(=S)Nc1cc(C(=O)O)ccc1Cl | 4.69 |

| Compound | hERG current change (%, negative = inhibition) at 1uM [%] |
| --- | --- |
| Cc1cccc(N2CCN(C(=O)COc3ccc4c(c3)CCC4)CC2C)c1 (stereo not shown) | 8.31 |
| CC(C)CCNC(=O)C1CC(c2ccccc2[N+](=O)[O-])=NO1 (stereo not shown) | 5.5 |
| O=C(CSc1nnnn1C1CCCC1)N1CCCc2ccccc21 | 13.3 |
| COC(=O)c1cccc(C(=O)N2CCCC(C(=O)c3cccc(OC(C)C)c3)C2)c1 (stereo not shown) | 5.81 |
| CCN1CCc2c(C#N)c(N3CCOCC3)nc(N3CCOCC3)c2C1 | 14.5 |
| Cc1cc(-c2ccccc2)nn1-c1nc2c(c(=O)[nH]c(=O)n2C)n1C | 5.39 |
| Cc1ccc(OCC(=O)Nc2ccc(N3CCOCC3)cc2)c([N+](=O)[O-])n1 | 12.2 |
| CCOC(=O)C1=C(C)N=C2c3ccccc3C(=O)C2C1c1ccc(Br)cc1 (stereo not shown) | 3.1 |
| CS(=O)(=O)N1CCC(C(=O)Nc2cc(Cl)c(Cl)cc2Cl)CC1 | 14.7 |
| O=C(Nc1ccccc1)c1ccc(OC(=O)c2cc3ccccc3o2)cc1 | 21.6 |
| COc1cc2oc3ccccc3c2cc1N(CC(=O)N(C)C)S(=O)(=O)c1ccccc1 | 0.641 |
| O=C(CCCNS(=O)(=O)c1ccc(Br)cc1)N1CC[C@@]2(O)CCCC[C@H]2C1 | -2.19 |
| O=C(Nc1ccccc1C(=O)NCCCN1CCOCC1)c1cccc([N+](=O)[O-])c1 | -21.2 |
| CC1CCN(CC(=O)NNC(=O)c2cccc(Br)c2)CC1 | 5.79 |
| CC(=O)c1c(C)[nH]c(C(=O)NCc2ccccc2Cl)c1C | 8.99 |
| CCN(CC)S(=O)(=O)c1ccc(C(=O)Oc2ccc3c(c2)OCO3)cc1 | -0.676 |
| Cn1c(=O)c2c(ncn2CC(=O)N/N=C/C=C/c2ccco2)n(C)c1=O | 12.4 |
| Cn1c(SCC(N)=O)nnc1-c1cnccn1 | 14.8 |
| Nc1ccc(O)c([N+](=O)[O-])c1 | 16.7 |
| O=S(=O)(c1ccc2ccccc2c1)N1CCN(S(=O)(=O)N2CCOCC2)CC1 | 4.9 |
| COc1cccc(N(CC(=O)NC(C)c2ccccc2)S(C)(=O)=O)c1 (stereo not shown) | 16.9 |
| CCOc1ccc(/C=C/C(=O)Nc2ccc3[nH]c(=O)[nH]c3c2)cc1 | 13 |
| Cc1ccccc1NC(=O)CSc1nnc(Cc2cccn2C)n1-c1ccc(F)cc1 | 8.11 |

| Compound | hERG current change (%, negative = inhibition) at 1uM [%] |
| --- | --- |
| CN(c1cccc(NC(=O)Nc2ccc(Cl)cc2)c1)S(C)(=O)=O | -2.89 |
| COC(=O)CN1C(=O)N/C(=C/c2ccc(OC)c(C)c2OC)C1=O | 18.4 |
| CC(NC(=O)c1ccc(Br)s1)c1ccncc1 (stereo not shown) | 6.83 |
| CCOC(=O)C1CCN(S(=O)(=O)c2ccc(Cl)cc2OC)CC1 | -24.7 |
| COc1ccc(C2(c3ccc(OC)cc3)NC(=O)N(CC(=O)Nc3ccc(OC(F)F)cc3)C2=O)cc1 | 9.33 |
| Cc1ccc(N2C(=O)CC(Cc3ccc(Cl)cc3)C2=O)cc1 (stereo not shown) | 10.8 |
| CC(=O)Nc1ccc(Sc2ccccc2C(=O)Nc2ccc(F)cc2)cn1 | 22.9 |
| Cc1nn(CC#N)c(=O)n1N(C)c1ncc(C(F)(F)F)cc1Cl | 11.2 |
| O=C(CN1CCN(c2ncccn2)CC1)N1CCc2ccccc21 | 14.4 |
| NS(=O)(=O)c1ccc(NC(=O)CN2CCCN(S(=O)(=O)c3ccc(F)cc3)CC2)cc1 | 12.4 |
| COc1ccc(NC(=O)/C(C#N)=C/c2ccc3c(c2)n(C)c(=O)n3C)cc1 | 5.03 |
| N#Cc1ccsc1NC(=O)COC(=O)c1ccc2ccccc2c1 | 0.816 |
| COc1cc2nc(C)sc2cc1SC | -9.35 |
| O=C(Nc1ccccc1)c1ccc(-c2ccccc2Cl)o1 | 15.7 |
| COc1ccc(-c2nc(CS(=O)(=O)CC(=O)NC3CCC(C)CC3)c(C)o2)cc1 (stereo not shown) | 13.1 |
| O=C(Nc1nc(SCc2ccc(F)cc2)ns1)c1ccco1 | 2.86 |
| Cc1ccc(C(C)NC(=O)C2CCCC2)cc1C (stereo not shown) | 7.58 |
| CCOC(=O)C(C)Oc1c(Br)cc(C2NC(=O)NC(C)=C2C(C)=O)cc1OCC (stereo not shown) | 6.76 |
| Cc1cc(N2CCN(Cc3nc(-c4ccc(F)cc4)oc3C)CC2)cc(C)n1 | -27.2 |
| CC(C)COc1ccc(C(=O)N/C(=C\c2cccc([N+](=O)[O-])c2)C(=O)OC(C)C)cc1 | 5.91 |
| CCCC(=O)Nc1nnc(CC(=O)OCC)s1 | 5.27 |
| CC(C)COc1ccc(C(=O)OCCN2CCCCC2)cc1.Cl | 4.6 |
